{"source": "paper PMC9911399", "about": "“Two distinct binding modes provide the RNA-binding protein RbFox with extraordinary sequence specificity”", "binders": {"B1": {"name": "AAAACAU (DNA:RNA)", "RNA": "GGGAGACCGGAAUUCAGAUUGUCCAAAACAUUUAAAUCCCGUCGUAGCCACCA", "DNA 1": "CAATCTGAATTCCGGTCTCCC", "DNA 2": "TGGTGGCTACGACGGGATT"}, "B2": {"name": "CACUGGA (DNA:RNA)", "RNA": "B1 RNA with A25C, A27C, A28U, C29G, A30G, U31A", "DNA 1": "CAATCTGAATTCCGGTCTCCC", "DNA 2": "TGGTGGCTACGACGGGATT"}, "B3": {"name": "UAUAUCA (DNA:RNA)", "RNA": "B1 RNA with A25U, A27U, C29U, A30C, U31A", "DNA 1": "CAATCTGAATTCCGGTCTCCC", "DNA 2": "TGGTGGCTACGACGGGATT"}, "B4": {"name": "AACCAGG (DNA:RNA)", "RNA": "B1 RNA with A27C, A28C, C29A, A30G, U31G", "DNA 1": "CAATCTGAATTCCGGTCTCCC", "DNA 2": "TGGTGGCTACGACGGGATT"}, "B5": {"name": "UAUUCCU (DNA:RNA)", "RNA": "B1 RNA with A25U, A27U, A28U, A30C", "DNA 1": "CAATCTGAATTCCGGTCTCCC", "DNA 2": "TGGTGGCTACGACGGGATT"}, "B6": {"name": "CACACUA (DNA:RNA)", "RNA": "B1 RNA with A25C, A27C, A30U, U31A", "DNA 1": "CAATCTGAATTCCGGTCTCCC", "DNA 2": "TGGTGGCTACGACGGGATT"}, "B7": {"name": "UGACUGG (DNA:RNA)", "RNA": "B1 RNA with A25U, A26G, A28C, C29U, A30G, U31G", "DNA 1": "CAATCTGAATTCCGGTCTCCC", "DNA 2": "TGGTGGCTACGACGGGATT"}, "B8": {"name": "CAGCGGC (DNA:RNA)", "RNA": "B1 RNA with A25C, A27G, A28C, C29G, A30G, U31C", "DNA 1": "CAATCTGAATTCCGGTCTCCC", "DNA 2": "TGGTGGCTACGACGGGATT"}, "B9": {"name": "CACGAAA (DNA:RNA)", "RNA": "B1 RNA with A25C, A27C, A28G, C29A, U31A", "DNA 1": "CAATCTGAATTCCGGTCTCCC", "DNA 2": "TGGTGGCTACGACGGGATT"}, "B10": {"name": "GGCGAGC (DNA:RNA)", "RNA": "GGGAGACCGGAAUUCAGAUUGUCCGGCGAGCUUAAAUCCCGUCGUAGCCACCA", "DNA 1": "CAATCTGAATTCCGGTCTCCC", "DNA 2": "TGGTGGCTACGACGGGATT"}, "B11": {"name": "UAAUACC (DNA:RNA)", "RNA": "B1 RNA with A25U, A28U, C29A, A30C, U31C", "DNA 1": "CAATCTGAATTCCGGTCTCCC", "DNA 2": "TGGTGGCTACGACGGGATT"}, "B12": {"name": "GUAAUCA (DNA:RNA)", "RNA": "B1 RNA with A25G, A26U, C29U, A30C, U31A", "DNA 1": "CAATCTGAATTCCGGTCTCCC", "DNA 2": "TGGTGGCTACGACGGGATT"}, "B13": {"name": "CACGGGA (DNA:RNA)", "RNA": "B10 RNA with G25C, G26A, A29G, C31A", "DNA 1": "CAATCTGAATTCCGGTCTCCC", "DNA 2": "TGGTGGCTACGACGGGATT"}, "B14": {"name": "UCUAAAA (DNA:RNA)", "RNA": "B1 RNA with A25U, A26C, A27U, C29A, U31A", "DNA 1": "CAATCTGAATTCCGGTCTCCC", "DNA 2": "TGGTGGCTACGACGGGATT"}, "B15": {"name": "AUUUGUA (DNA:RNA)", "RNA": "B1 RNA with A26U, A27U, A28U, C29G, A30U, U31A", "DNA 1": "CAATCTGAATTCCGGTCTCCC", "DNA 2": "TGGTGGCTACGACGGGATT"}, "B16": {"name": "UGGGGGC (DNA:RNA)", "RNA": "B10 RNA with G25U, C27G, A29G", "DNA 1": "CAATCTGAATTCCGGTCTCCC", "DNA 2": "TGGTGGCTACGACGGGATT"}, "B17": {"name": "CCUGGAU (DNA:RNA)", "RNA": "B1 RNA with A25C, A26C, A27U, A28G, C29G", "DNA 1": "CAATCTGAATTCCGGTCTCCC", "DNA 2": "TGGTGGCTACGACGGGATT"}, "B18": {"name": "UUUGGCU (DNA:RNA)", "RNA": "B1 RNA with A25U, A26U, A27U, A28G, C29G, A30C", "DNA 1": "CAATCTGAATTCCGGTCTCCC", "DNA 2": "TGGTGGCTACGACGGGATT"}, "B19": {"name": "GUACUCC (DNA:RNA)", "RNA": "B10 RNA with G26U, C27A, G28C, A29U, G30C", "DNA 1": "CAATCTGAATTCCGGTCTCCC", "DNA 2": "TGGTGGCTACGACGGGATT"}, "B20": {"name": "CGAAAUC (DNA:RNA)", "RNA": "B10 RNA with G25C, C27A, G28A, G30U", "DNA 1": "CAATCTGAATTCCGGTCTCCC", "DNA 2": "TGGTGGCTACGACGGGATT"}, "B21": {"name": "CUGAAGU (DNA:RNA)", "RNA": "B1 RNA with A25C, A26U, A27G, C29A, A30G", "DNA 1": "CAATCTGAATTCCGGTCTCCC", "DNA 2": "TGGTGGCTACGACGGGATT"}, "B22": {"name": "CUGAUGU (DNA:RNA)", "RNA": "B1 RNA with A25C, A26U, A27G, C29U, A30G", "DNA 1": "CAATCTGAATTCCGGTCTCCC", "DNA 2": "TGGTGGCTACGACGGGATT"}, "B23": {"name": "CUAGGGU (DNA:RNA)", "RNA": "B1 RNA with A25C, A26U, A28G, C29G, A30G", "DNA 1": "CAATCTGAATTCCGGTCTCCC", "DNA 2": "TGGTGGCTACGACGGGATT"}, "B24": {"name": "CUCGGUC (DNA:RNA)", "RNA": "B10 RNA with G25C, G26U, A29G, G30U", "DNA 1": "CAATCTGAATTCCGGTCTCCC", "DNA 2": "TGGTGGCTACGACGGGATT"}, "B25": {"name": "ACUUGUA (DNA:RNA)", "RNA": "B1 RNA with A26C, A27U, A28U, C29G, A30U, U31A", "DNA 1": "CAATCTGAATTCCGGTCTCCC", "DNA 2": "TGGTGGCTACGACGGGATT"}, "B26": {"name": "GAAGUGG (DNA:RNA)", "RNA": "B10 RNA with G26A, C27A, A29U, C31G", "DNA 1": "CAATCTGAATTCCGGTCTCCC", "DNA 2": "TGGTGGCTACGACGGGATT"}, "B27": {"name": "UAAAACG (DNA:RNA)", "RNA": "B1 RNA with A25U, C29A, A30C, U31G", "DNA 1": "CAATCTGAATTCCGGTCTCCC", "DNA 2": "TGGTGGCTACGACGGGATT"}, "B28": {"name": "AGGGCAA (DNA:RNA)", "RNA": "B1 RNA with A26G, A27G, A28G, U31A", "DNA 1": "CAATCTGAATTCCGGTCTCCC", "DNA 2": "TGGTGGCTACGACGGGATT"}, "B29": {"name": "CGCUUCU (DNA:RNA)", "RNA": "B10 RNA with G25C, G28U, A29U, G30C, C31U", "DNA 1": "CAATCTGAATTCCGGTCTCCC", "DNA 2": "TGGTGGCTACGACGGGATT"}, "B30": {"name": "UACUAAU (DNA:RNA)", "RNA": "B1 RNA with A25U, A27C, A28U, C29A", "DNA 1": "CAATCTGAATTCCGGTCTCCC", "DNA 2": "TGGTGGCTACGACGGGATT"}, "B31": {"name": "UCACUAA (DNA:RNA)", "RNA": "B1 RNA with A25U, A26C, A28C, C29U, U31A", "DNA 1": "CAATCTGAATTCCGGTCTCCC", "DNA 2": "TGGTGGCTACGACGGGATT"}}, "note": "Residue numbers refer to the chain shown, from its start. The list shows a part of the results.", "data": [{"target": "T1, RBFOX1 RRM (Homo sapiens, UniProt Q9NWB1 109-208)", "T1 sequence": "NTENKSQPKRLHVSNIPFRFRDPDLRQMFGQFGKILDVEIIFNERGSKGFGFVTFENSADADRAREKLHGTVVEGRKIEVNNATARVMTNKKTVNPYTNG", "assay": "EMSA; HiTS-Eq, 1 nM pool, 10 min; buffer printed only for the single-RNA assays: 10 mM Tris pH 7.5, 150 mM NaCl, 3.4 mM EDTA, 0.001% NP-40, 30 C", "settings": "tags: His6 N-terminal (pET28a); label: 5' 32P", "summary_of_the_method": "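Purified RbFox RRM (wild type or mutant) was equilibrated for 10 min in 50 µL with 1 nM of a 5′-radiolabelled pool of RNA with 7 randomized nucleotides, its flanks annealed to DNA oligonucleotides, across increasing protein concentrations. Free RNA was separated by 8% native PAGE, excised, reverse-transcribed, PCR-barcoded and sequenced on an Illumina HiSeq 2500. Relative association constants came from read-count changes of each variant against the control reaction, normalised to the cognate motif.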", "values": [{"binder": "B1", "binding signal": "0.00106 KA relative to UGCAUGU"}, {"binder": "B2", "binding signal": "0.00963 KA relative to UGCAUGU"}, {"binder": "B3", "binding signal": "0.00945 KA relative to UGCAUGU"}, {"binder": "B4", "binding signal": "0.00428 KA relative to UGCAUGU"}, {"binder": "B5", "binding signal": "0.00296 KA relative to UGCAUGU"}, {"binder": "B6", "binding signal": "0.000688 KA relative to UGCAUGU"}, {"binder": "B7", "binding signal": "0.0284 KA relative to UGCAUGU"}, {"binder": "B8", "binding signal": "0.00856 KA relative to UGCAUGU"}, {"binder": "B9", "binding signal": "0.00287 KA relative to UGCAUGU"}, {"binder": "B10", "binding signal": "0.0238 KA relative to UGCAUGU"}, {"binder": "B11", "binding signal": "0.00205 KA relative to UGCAUGU"}, {"binder": "B12", "binding signal": "0.00644 KA relative to UGCAUGU"}, {"binder": "B13", "binding signal": "0.00287 KA relative to UGCAUGU"}, {"binder": "B14", "binding signal": "0.000771 KA relative to UGCAUGU"}, {"binder": "B15", "binding signal": "0.00607 KA relative to UGCAUGU"}, {"binder": "B16", "binding signal": "0.014 KA relative to UGCAUGU"}, {"binder": "B17", "binding signal": "0.0132 KA relative to UGCAUGU"}, {"binder": "B18", "binding signal": "0.0284 KA relative to UGCAUGU"}, {"binder": "B19", "binding signal": "0.0111 KA relative to UGCAUGU"}, {"binder": "B20", "binding signal": "0.00364 KA relative to UGCAUGU"}, {"binder": "B21", "binding signal": "0.0156 KA relative to UGCAUGU"}, {"binder": "B22", "binding signal": "0.0201 KA relative to UGCAUGU"}, {"binder": "B23", "binding signal": "0.00367 KA relative to UGCAUGU"}, {"binder": "B24", "binding signal": "0.0132 KA relative to UGCAUGU"}, {"binder": "B25", "binding signal": "0.00556 KA relative to UGCAUGU"}, {"binder": "B26", "binding signal": "0.017 KA relative to UGCAUGU"}, {"binder": "B27", "binding signal": "0.00409 KA relative to UGCAUGU"}, {"binder": "B28", "binding signal": "0.0182 KA relative to UGCAUGU"}, {"binder": "B29", "binding signal": "0.0121 KA relative to UGCAUGU"}, {"binder": "B30", "binding signal": "0.00373 KA relative to UGCAUGU"}, {"binder": "B31", "binding signal": "0.00309 KA relative to UGCAUGU"}]}]}
